Assay results as given in article PMC5869904.
Results are given in words; binding and its absence hold for the method and conditions named. Binding seen in cells or lysates may run through a third protein. Some binding calls cover weakened binding; strength is not graded here.

Protein sequences, listed by entry. Tags and fused reporters are not part of them. Residues count along the entry.
UniProt Q9WV18, residues 20-960: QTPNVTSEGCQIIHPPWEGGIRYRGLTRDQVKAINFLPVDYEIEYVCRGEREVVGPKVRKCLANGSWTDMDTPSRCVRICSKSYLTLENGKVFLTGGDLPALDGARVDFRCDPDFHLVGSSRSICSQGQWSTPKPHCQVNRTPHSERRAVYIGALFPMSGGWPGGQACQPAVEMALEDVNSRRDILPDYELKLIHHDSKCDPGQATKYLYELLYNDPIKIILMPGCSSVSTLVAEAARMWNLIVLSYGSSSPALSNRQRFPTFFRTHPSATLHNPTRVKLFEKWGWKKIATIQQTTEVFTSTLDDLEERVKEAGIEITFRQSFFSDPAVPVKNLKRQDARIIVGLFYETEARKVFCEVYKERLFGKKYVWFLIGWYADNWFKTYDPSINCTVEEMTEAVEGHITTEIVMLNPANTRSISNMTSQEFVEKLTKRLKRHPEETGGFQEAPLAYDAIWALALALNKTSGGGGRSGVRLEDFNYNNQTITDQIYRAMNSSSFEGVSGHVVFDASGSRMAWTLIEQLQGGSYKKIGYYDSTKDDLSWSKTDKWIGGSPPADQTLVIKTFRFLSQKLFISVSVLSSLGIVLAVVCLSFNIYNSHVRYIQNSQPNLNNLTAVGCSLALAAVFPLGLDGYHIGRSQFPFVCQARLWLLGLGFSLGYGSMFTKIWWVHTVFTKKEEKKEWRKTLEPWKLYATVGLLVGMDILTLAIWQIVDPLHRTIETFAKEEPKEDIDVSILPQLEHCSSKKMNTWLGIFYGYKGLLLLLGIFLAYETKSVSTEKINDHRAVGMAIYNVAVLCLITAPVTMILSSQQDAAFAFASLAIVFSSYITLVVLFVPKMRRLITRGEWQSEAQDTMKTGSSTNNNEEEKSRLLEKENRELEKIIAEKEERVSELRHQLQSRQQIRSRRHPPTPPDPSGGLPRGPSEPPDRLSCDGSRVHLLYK
UniProt P97445: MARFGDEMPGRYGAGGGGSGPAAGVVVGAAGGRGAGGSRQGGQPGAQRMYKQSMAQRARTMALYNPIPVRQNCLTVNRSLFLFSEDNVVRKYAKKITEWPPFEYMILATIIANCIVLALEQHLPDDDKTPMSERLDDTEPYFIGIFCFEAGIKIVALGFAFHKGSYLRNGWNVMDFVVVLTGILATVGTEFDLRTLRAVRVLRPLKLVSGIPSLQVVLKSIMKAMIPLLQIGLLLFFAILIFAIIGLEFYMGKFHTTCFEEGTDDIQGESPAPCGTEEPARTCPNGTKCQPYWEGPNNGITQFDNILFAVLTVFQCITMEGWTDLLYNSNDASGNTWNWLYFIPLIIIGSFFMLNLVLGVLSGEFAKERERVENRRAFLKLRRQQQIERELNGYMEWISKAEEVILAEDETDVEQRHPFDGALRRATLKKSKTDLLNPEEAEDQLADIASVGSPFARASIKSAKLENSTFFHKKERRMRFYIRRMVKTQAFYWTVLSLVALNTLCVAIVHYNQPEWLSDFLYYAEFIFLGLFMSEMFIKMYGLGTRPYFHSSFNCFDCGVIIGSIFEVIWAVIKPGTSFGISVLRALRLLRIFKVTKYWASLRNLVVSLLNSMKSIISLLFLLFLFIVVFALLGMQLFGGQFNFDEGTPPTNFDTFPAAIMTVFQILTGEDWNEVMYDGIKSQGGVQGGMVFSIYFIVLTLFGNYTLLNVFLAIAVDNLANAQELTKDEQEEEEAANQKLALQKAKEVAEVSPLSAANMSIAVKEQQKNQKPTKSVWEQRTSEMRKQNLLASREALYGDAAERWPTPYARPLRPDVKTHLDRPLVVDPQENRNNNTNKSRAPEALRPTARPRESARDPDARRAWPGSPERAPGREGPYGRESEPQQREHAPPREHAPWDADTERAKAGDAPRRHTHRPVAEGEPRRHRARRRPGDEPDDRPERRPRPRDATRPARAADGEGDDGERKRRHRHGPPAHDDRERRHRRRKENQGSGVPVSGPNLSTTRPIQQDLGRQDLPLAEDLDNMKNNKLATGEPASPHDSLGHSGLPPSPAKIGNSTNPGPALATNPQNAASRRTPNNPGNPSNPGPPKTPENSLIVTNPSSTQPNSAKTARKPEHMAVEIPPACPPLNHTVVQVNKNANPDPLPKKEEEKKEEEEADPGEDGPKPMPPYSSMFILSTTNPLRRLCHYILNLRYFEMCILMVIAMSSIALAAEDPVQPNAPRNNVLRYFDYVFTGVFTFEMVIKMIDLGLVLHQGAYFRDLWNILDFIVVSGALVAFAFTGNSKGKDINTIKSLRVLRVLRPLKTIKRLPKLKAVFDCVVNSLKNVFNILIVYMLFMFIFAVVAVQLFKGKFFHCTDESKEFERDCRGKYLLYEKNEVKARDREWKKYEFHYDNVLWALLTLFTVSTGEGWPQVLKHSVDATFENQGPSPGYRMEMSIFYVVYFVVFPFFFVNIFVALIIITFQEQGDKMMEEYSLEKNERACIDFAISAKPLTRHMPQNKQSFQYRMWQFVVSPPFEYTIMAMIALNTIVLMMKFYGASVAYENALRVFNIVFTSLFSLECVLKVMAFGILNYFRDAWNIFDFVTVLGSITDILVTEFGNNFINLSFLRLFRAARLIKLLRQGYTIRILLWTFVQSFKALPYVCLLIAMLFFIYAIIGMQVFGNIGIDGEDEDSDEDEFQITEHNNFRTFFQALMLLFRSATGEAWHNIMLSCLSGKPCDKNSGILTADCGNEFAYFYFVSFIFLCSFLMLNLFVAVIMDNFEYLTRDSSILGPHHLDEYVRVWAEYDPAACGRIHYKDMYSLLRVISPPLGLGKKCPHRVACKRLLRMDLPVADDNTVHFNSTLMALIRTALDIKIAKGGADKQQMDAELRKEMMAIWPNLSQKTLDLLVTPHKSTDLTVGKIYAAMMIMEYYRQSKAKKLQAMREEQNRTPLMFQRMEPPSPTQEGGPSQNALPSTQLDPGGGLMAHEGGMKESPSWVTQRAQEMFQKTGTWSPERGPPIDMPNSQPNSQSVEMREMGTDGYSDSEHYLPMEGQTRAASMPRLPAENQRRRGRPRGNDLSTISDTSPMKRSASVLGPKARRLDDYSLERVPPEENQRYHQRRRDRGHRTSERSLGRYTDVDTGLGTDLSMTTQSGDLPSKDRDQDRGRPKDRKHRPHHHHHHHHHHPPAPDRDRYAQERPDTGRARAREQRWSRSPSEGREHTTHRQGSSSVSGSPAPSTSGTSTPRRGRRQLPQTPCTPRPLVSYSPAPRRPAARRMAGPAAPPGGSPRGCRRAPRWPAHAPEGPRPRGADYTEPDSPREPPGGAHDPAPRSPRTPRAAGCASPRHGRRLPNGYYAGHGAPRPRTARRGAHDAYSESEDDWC

T1: GIRK2 subunit of the G protein-gated inwardly rectifying K+ (GIRK/Kir3) channel (mouse (endogenous in cerebellum)) (UniProt P48542)
T1 sequence: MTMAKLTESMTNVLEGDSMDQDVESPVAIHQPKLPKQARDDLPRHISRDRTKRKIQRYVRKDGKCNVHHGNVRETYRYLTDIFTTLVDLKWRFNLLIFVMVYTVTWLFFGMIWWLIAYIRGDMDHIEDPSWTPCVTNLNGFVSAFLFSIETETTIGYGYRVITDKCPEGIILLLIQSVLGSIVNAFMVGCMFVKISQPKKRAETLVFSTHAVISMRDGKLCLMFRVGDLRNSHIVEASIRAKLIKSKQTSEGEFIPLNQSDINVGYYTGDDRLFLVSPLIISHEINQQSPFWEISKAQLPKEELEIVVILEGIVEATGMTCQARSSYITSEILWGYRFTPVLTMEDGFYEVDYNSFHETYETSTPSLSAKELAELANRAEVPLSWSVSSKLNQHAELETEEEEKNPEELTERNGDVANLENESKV


Experiments:
[1] = target: T1, GIRK2 subunit of the G protein-gated inwardly rectifying K+ (GIRK/Kir3) channel (mouse (endogenous in cerebellum)); experiment: co-IP; wild-type (GABAB1+/+) mouse cerebellar membrane extract solubilised in RIPA buffer (50 mM Tris-HCl pH 7.4, 100 mM NaCl, 1% Triton X-100, 0.5% sodium deoxycholate, 0.2% SDS, 1 mM EDTA); 2 ug antibody overnight at 0-4 C, TrueBlot anti-rabbit Ig IP beads; immunoblot
[2] = target: GABAB1 subunit of the GABAB receptor (mouse (endogenous in cerebellum)) (UniProt Q9WV18); experiment: as above
[3] = target: T1, GIRK2 subunit of the G protein-gated inwardly rectifying K+ (GIRK/Kir3) channel (mouse (endogenous in cerebellum)); experiment: condition: only in extracts from GABAB1 receptor knockout (GABAB1-/-) cerebellum; co-IP; GABAB1 receptor knock-out (GABAB1-/-) mouse cerebellar membrane extract solubilised in RIPA buffer; 2 ug antibody overnight at 0-4 C, TrueBlot anti-rabbit Ig IP beads; immunoblot
[4] = target: CaV2.1 subunit of P/Q-type voltage-dependent Ca2+ channels (mouse (endogenous in cerebellum)) (UniProt P97445); experiment: co-IP; wild-type (GABAB1+/+) mouse cerebellar membrane extract solubilised in RIPA buffer (50 mM Tris-HCl pH 7.4, 100 mM NaCl, 1% Triton X-100, 0.5% sodium deoxycholate, 0.2% SDS, 1 mM EDTA); 2 ug antibody overnight at 0-4 C, TrueBlot anti-rabbit Ig IP beads; immunoblot
[5] = target: CaV2.1 subunit of P/Q-type voltage-dependent Ca2+ channels (mouse (endogenous in cerebellum)) (UniProt P97445); experiment: condition: only in extracts from GABAB1 receptor knockout (GABAB1-/-) cerebellum; co-IP; GABAB1 receptor knock-out (GABAB1-/-) mouse cerebellar membrane extract solubilised in RIPA buffer; 2 ug antibody overnight at 0-4 C, TrueBlot anti-rabbit Ig IP beads; immunoblot

Molecule | binding [1] | binding [2] | binding [3] | binding [4] | binding [5]
CaV2.1 subunit of P/Q-type voltage-dependent Ca2+ channels (from UniProt P97445 1-2368) | binds | binds | no binding |  | 
GIRK2 subunit of the G protein-gated inwardly rectifying K+ (GIRK/Kir3) channel (protein, UniProt P48542 1-425) MTMAKLTESMTNVLEGDSMDQDVESPVAIHQPKLPKQARDDLPRHISRDRTKRKIQRYVRKDGKCNVHHGNVRETYRYLTDIFTTLVDLKWRFNLLIFVMVYTVTWLFFGMIWWLIAYIRGDMDHIEDPSWTPCVTNLNGFVSAFLFSIETETTIGYGYRVITDKCPEGIILLLIQSVLGSIVNAFMVGCMFVKISQPKKRAETLVFSTHAVISMRDGKLCLMFRVGDLRNSHIVEASIRAKLIKSKQTSEGEFIPLNQSDINVGYYTGDDRLFLVSPLIISHEINQQSPFWEISKAQLPKEELEIVVILEGIVEATGMTCQARSSYITSEILWGYRFTPVLTMEDGFYEVDYNSFHETYETSTPSLSAKELAELANRAEVPLSWSVSSKLNQHAELETEEEEKNPEELTERNGDVANLENESKV |  | binds |  | binds | no binding
